Converted amounts (≈) assume the structure as drawn.
Tested on: Methicillin-resistant Staphylococcus aureus (MRSA 1350II 06)
Assay: MIC/MBC by micro-dilution method

Compound	MBC	MIC
O=c1c(-c2ccc(O)cc2)coc2cc(O)cc(O)c12 [compound 1, genistein]	> 100 µg/mL	> 100 µg/mL
O=C(O)c1cc(O)ccc1O [compound 6, 2,5-dihydroxybenzoic acid]	35 µg/mL (≈ 227 µM)	15 µg/mL (≈ 97.3 µM)
CCCCCCCCCCCCCCCC(=O)O [compound 2, hexadecanoic acid]	> 100 µg/mL	> 100 µg/mL
CC[C@H](CC[C@@H](C)[C@H]1CC[C@H]2[C@@H]3CC=C4C[C@@H](O[C@@H]5O[C@H](CO)[C@@H](O)[C@H](O)[C@H]5O)CC[C@]4(C)[C@H]3CC[C@]12C)C(C)C [compound 4, β-sitosterol-D-glucoside]	> 100 µg/mL	> 100 µg/mL
O=C(O)c1cccc(O)c1O [compound 5, 2,3-dihydroxybenzoic acid]	15 µg/mL (≈ 97.3 µM)	15 µg/mL (≈ 97.3 µM)
